Results taken from US20160311870A1 (SWEDISH ORPHAN BIOVITRUM AB PUBL, published 2016).

Tests used:
human albumin = target: T1, human albumin (human, UniProt P02768 25-609); experiment: ELISA on coated recombinant human albumin, amount bound read against a PSI0242 standard curve
T1 construct: also called recombinant human albumin; human serum albumin

[1] = target: T2, human complement component 5 (C5) (human, UniProt P01031 19-673; P01031 678-1676); experiment: cell-based or functional assay
[2] = target: T2, human complement component 5 (C5); experiment: SPR (Biacore T200), human C5 amine-coupled to CM5 chip, single cycle kinetics, 1:1 model
[3] = target: T2, human complement component 5 (C5); experiment: BLI (ForteBio), compound captured on HSA sensor, human C5 in solution
Method: (§1) Human serum albumin was immobilized to Amine Reactive 2nd generation (AR2G) Dip and Read Biosensors (Pall Life sciences (ForteBio) Cat #18-5092) by amine coupling. […] Regeneration conditions for the sensors were 10 mM Glycine, pH 2 (three pulses with 30 seconds and running buffer for 60 seconds). Each spectrogram was reference subtracted against an analogous construct containing an albumin binding domain (SEQ ID NO: 250) but without the C5 binding capacity. The data were analyzed according to Langmuir 1:1 model using ForteBio Analysis 7.1 (Pall Life sciences (ForteBio) kinetics software).

[4] = target: T2, human complement component 5 (C5); experiment: BLI (ForteBio), compound captured on HSA sensor, human C5 0.79-25 nM in solution, 1:1 model
Method: as §1

| Binder | % of total protein content (human albumin) | IC 50 (nM), inhibition of hemolysis of antibody sensitized sheep erythrocytes [1] | Potency (%), inhibition of hemolysis of antibody sensitized sheep erythrocytes [1] | Kd [2] | Rel. KD (KD relative to PSI0242) [3] | Kd [4] |
| --- | --- | --- | --- | --- | --- | --- |
| PSI0410 (designed binder, D60E against PSI0242 (linker KVEGS, positions 52-53 remain ND)) AEAKYAKEVLEAWDEIDRLPNLTIEQWLAFINKLDDDPSQSSELLSEAKKLNDSQAPKVEGSLAEAKEAANAELDSYGVSDFYKRLIDKAKTVEGVEALKDAILAALP | 150% | 0.49 nM | 107% | 1.3 nM | – | – |
| PSI0242 (designed binder, made in E. coli) AEAKYAKEVLEAWDEIDRLPNLTIEQWLAFINKLDDDPSQSSELLSEAKKLNDSQAPKVDGSLAEAKEAANAELDSYGVSDFYKRLIDKAKTVEGVEALKDAILAALP | 103% | 0.47 nM | 100% | 1.3 nM | 1 | 1 to 3 nM |
| PSI0334 (designed binder, N52S and D53E against PSI0242) AEAKYAKEVLEAWDEIDRLPNLTIEQWLAFINKLDDDPSQSSELLSEAKKLSESQAPKVDGSLAEAKEAANAELDSYGVSDFYKRLIDKAKTVEGVEALKDAILAALP | – | – | – | – | 1.1 | – |
| PSI0340 (designed binder) AEAKYAKEVLEAWDEIDRLPNLTIEQWLAFINKLEDDPSQSSELLSEAKKLNDSQAPKVDGSLAEAKEAANAELDSYGVSDFYKRLIDKAKTVEGVEALKDAILAALP | – | – | – | 2.5 nM | – | – |
| PSI0378 (designed binder, N52S, D53E, D60E against PSI0242) AEAKYAKEVLEAWDEIDRLPNLTIEQWLAFINKLDDDPSQSSELLSEAKKLSESQAPKVEGSLAEAKEAANAELDSYGVSDFYKRLIDKAKTVEGVEALKDAILAALP | 85% | 0.58 nM | 83% | 2.1 nM | 1.3 | – |
| PSI0381 (designed binder, N52E, D53S, D60E against PSI0242) AEAKYAKEVLEAWDEIDRLPNLTIEQWLAFINKLDDDPSQSSELLSEAKKLESSQAPKVEGSLAEAKEAANAELDSYGVSDFYKRLIDKAKTVEGVEALKDAILAALP | – | – | – | – | 23 | – |
